# The other results are listed elsewhere or left out.
# Assays:
# HSkMC = human skeletal muscle cells; assay: cytotoxicity call (relative viability < 0.9); settings: 10 µM
# HepG2 = assay: cytotoxicity call (relative viability < 0.9); settings: 10 µM
# S. aureus RN4220 = assay: growth inhibition call (relative growth <= 0.2); settings: 50 µM
SMILES,cytotoxicity call (HSkMC),cytotoxicity call (HepG2),growth inhibition call (S. aureus RN4220)
COCc1cn(C[C@H](Cc2ccccc2)NC(=O)N[C@H](CO)CCc2oc(C(=O)N3CCOCC3)c(C(=O)OC)c2C(=O)OC)nn1,inactive,inactive,inactive
C[C@H](CO)N1C[C@H](C)[C@@H](CN(C)S(=O)(=O)c2ccc(C(F)(F)F)cc2)OCc2ccccc2-c2c(n(C)c3ccccc23)C1=O,inactive,inactive,inactive
C[C@@H]1CN([C@@H](C)CO)C(=O)c2c(c3ccccc3n2C)-c2ccccc2CO[C@H]1CN(C)Cc1ccc(C(F)(F)F)cc1,active,inactive,inactive
COc1ccc(S(=O)(=O)Nc2ccc3c(c2)CC(=O)N([C@H](C)CO)C[C@@H](C)[C@H](CN(C)S(C)(=O)=O)O3)cc1,inactive,inactive,inactive
Cc1ccc(S(=O)(=O)Nc2cccc3c2O[C@@H](CN(C)S(=O)(=O)c2cccs2)[C@H](C)CN([C@H](C)CO)C3=O)cc1,inactive,inactive,inactive
COc1cccc(NC(=O)N[C@@H]2CC[C@@H](CC(=O)N3CCN(C)CC3)O[C@H]2CO)c1,inactive,inactive,inactive
O=C(O)CNc1ccc(C(=O)O)cc1,inactive,inactive,inactive
Cc1noc(C)c1CC(=O)N1CCCC[C@@H]1CCOc1cccc(CN(C)Cc2cccc3cccnc23)c1,inactive,inactive,inactive
C[C@@H]1CCCCO[C@@H](CN(C)Cc2ccc(C(=O)Nc3ccccc3N)cc2)[C@H](C)CN([C@H](C)CO)C(=O)c2cc(N(C)C)ccc2O1,inactive,active,inactive
COc1ccc(CN(C)C[C@H]2OCCCC[C@@H](C)Oc3ccc(NS(=O)(=O)c4ccc(OC)cc4)cc3C(=O)N([C@H](C)CO)C[C@@H]2C)cc1,inactive,inactive,inactive
COc1ccccc1CNC(=O)C[C@H]1CC[C@@H]2[C@H](COC[C@H](O)CN2C(=O)Nc2ccc(Cl)cc2)O1,inactive,inactive,inactive
C[C@H](O)C#Cc1ccc2c(c1)O[C@H](CN(C)C(=O)C1CCCCC1)[C@@H](C)CN([C@H](C)CO)S2(=O)=O,inactive,inactive,inactive
C=CCOC(=O)[C@H]1[C@@H]2C(=O)O[C@@H](c3ccccc3)[C@@H](c3ccccc3)N2[C@@H](c2ccc(OCCOC(=O)[C@H]3C[C@H]4C(=O)N[C@@H](CCCCNC(C)=O)C(=O)N4[C@H]3c3ccc(O)cc3)cc2)[C@]12C(=O)Nc1ccc(I)cc12,inactive,inactive,inactive
Cc1cc(C(=O)Nc2cccc3c2O[C@H](CN(C)Cc2ccc4c(c2)OCO4)[C@@H](C)CN([C@H](C)CO)C3=O)n(C)n1,inactive,inactive,inactive
O=S(=O)(Cc1nn[nH]n1)c1ccccc1,inactive,inactive,inactive
COc1cccc(S(=O)(=O)Nc2ccc3c(c2)[C@@H]2C[C@@H](CC(=O)NCCc4ccccc4)O[C@H](CO)[C@@H]2O3)c1,inactive,inactive,inactive
C[C@@H]1CN([C@@H](C)CO)C(=O)c2cc(NC(=O)Nc3ccc4c(c3)OCO4)ccc2O[C@@H](C)CCCCO[C@H]1CN(C)Cc1ccc(C(=O)O)cc1,inactive,inactive,inactive
O=C(C[C@H]1CC[C@@H]2[C@H](COC[C@@H](O)CN2C(=O)Nc2ccc(Cl)cc2)O1)NCCc1ccncc1,inactive,inactive,inactive
Cc1noc(C)c1S(=O)(=O)Nc1ccc2c(c1)C(=O)N([C@@H](C)CO)C[C@@H](C)[C@H](CN(C)C(=O)Nc1cccc3ccccc13)OCCCC[C@H](C)O2,inactive,inactive,inactive
C=C(C)C1CCC2(CO)CCC3(C)C(CCC4C5(C)CCC(O)C(C)(C)C5CCC43C)C12 (centres undefined),active,active,inactive

SMILES,cytotoxicity call (HSkMC),cytotoxicity call (HepG2),growth inhibition call (S. aureus RN4220)
C[C@H]1CN([C@@H](C)CO)C(=O)c2cc(-c3ccc(C(=O)N(C)C)cc3)cnc2O[C@@H]1CN(C)C(=O)c1cccnc1,inactive,inactive,inactive
Cc1noc(C)c1S(=O)(=O)Nc1ccc2c(c1)C(=O)N([C@H](C)CO)C[C@H](C)[C@H](CN(C)C(=O)Nc1ccc(C(F)(F)F)cc1)OCCCC[C@H](C)O2,active,inactive,inactive
C[C@@H]1CCCCO[C@@H](CN(C)C(=O)C2CCCCC2)[C@@H](C)CN([C@@H](C)CO)C(=O)c2cc(NC(=O)c3ccncc3)ccc2O1,inactive,inactive,inactive
CCN(CC)CCCn1c(/C=C/c2ccc(O)c(OC)c2)cc(/C=C/c2ccc(O)c(OC)c2)nc1=S,inactive,inactive,inactive
C[C@H]1CN([C@@H](C)CO)C(=O)c2cc(NC(=O)CCCCCC(=O)Nc3ccccc3N)ccc2O[C@H]1CN(C)Cc1ccc(-c2ccccc2)cc1,inactive,inactive,inactive
COc1ccc(S(=O)(=O)N(C)C[C@H]2Oc3cc(C#CC4CC4)ccc3S(=O)(=O)N([C@H](C)CO)C[C@@H]2C)cc1,inactive,inactive,inactive
COc1ccc(S(=O)(=O)N(C)C[C@H]2Oc3c(NC(=O)NC(C)C)cccc3C(=O)N([C@@H](C)CO)C[C@@H]2C)cc1,inactive,inactive,inactive
COc1ccc(NC(=O)N(C)C[C@@H]2Oc3c(NS(=O)(=O)c4c(C)noc4C)cccc3C(=O)N([C@H](C)CO)C[C@@H]2C)cc1,inactive,inactive,inactive
C[C@@H]1CCCCO[C@H](CN(C)CC2CCCCC2)[C@H](C)CN([C@@H](C)CO)C(=O)c2cc(NS(=O)(=O)c3cccs3)ccc2O1,inactive,active,inactive
C=CCC[C@@H](Cc1ccc(F)cc1)C(=O)OC[C@H]1CCCN1C(=O)[C@H](CC=C)CC(=O)N(CCO)Cc1ccccc1,inactive,inactive,inactive
CC(C)Cc1nc2ccccc2[nH]1,inactive,inactive,inactive
C[C@H](CO)N1C[C@H](C)[C@@H](CN(C)Cc2ccc(Oc3ccccc3)cc2)Oc2cc(-c3ccncc3)ccc2S1(=O)=O,inactive,inactive,inactive
C[C@H]1CN([C@@H](C)CO)C(=O)c2c(c3ccccc3n2C)-c2ccccc2CO[C@H]1CN(C)Cc1ccc(F)cc1,inactive,inactive,inactive
COc1ccc(-c2cc(=O)c3ccccc3o2)cc1,inactive,inactive,inactive
CC(C)NC(=O)Nc1ccc2c(c1)C(=O)N([C@H](C)CO)C[C@H](C)[C@@H](CN(C)Cc1ccccc1)OCCCC[C@@H](C)O2,inactive,inactive,inactive
Cc1noc(C)c1S(=O)(=O)N(C)C[C@H]1Oc2ccc(NC(=O)C3CC3)cc2CC(=O)N([C@@H](C)CO)C[C@H]1C,inactive,inactive,inactive
c1cnc(N2CCN(Cc3ccc4c(c3)OCO4)CC2)nc1,inactive,inactive,inactive
C[C@H](CO)N1C[C@H](C)[C@H](CN(C)S(=O)(=O)c2ccc(Cl)cc2)Oc2c(NC(=O)C3CC3)cccc2C1=O,inactive,inactive,inactive
O=C1CO[C@H]2CN(C(=O)COc3ccccc3)C[C@@H]2N1,inactive,inactive,inactive
CN1C(=O)c2cc(NC(=O)c3ccc(F)cc3)ccc2OC[C@@H]2O[C@@H](CC(=O)N3CCOCC3)CC[C@H]21,inactive,active,inactive

SMILES,cytotoxicity call (HSkMC),cytotoxicity call (HepG2),growth inhibition call (S. aureus RN4220)
O=C(O)C[C@H](O)C(=O)O,inactive,inactive,inactive
C[C@@H]1CN([C@@H](C)CO)C(=O)c2cc(-c3ccc(C(=O)N(C)C)cc3)cnc2O[C@@H]1CN(C)C(=O)C1CC1,inactive,inactive,inactive
CCOC(=O)C(CCc1ccccc1)NC(C)C(=O)N1C(C(=O)O)CC2CCCCC21 (centres undefined),inactive,inactive,inactive
O=C(NCCO)C(=O)NCc1ccco1,inactive,inactive,inactive
Cc1cc2n(c(=O)c1C(N)=O)CCO2,inactive,inactive,inactive
CC(C)(C)C(=O)c1cccs1,inactive,inactive,inactive
CC1=Nc2ccc(Cl)cc2S(=O)(=O)N1,inactive,inactive,inactive
COc1ccc(CN(C)C[C@@H]2OCCCC[C@H](C)Oc3ccc(NS(=O)(=O)c4c(C)noc4C)cc3C(=O)N([C@H](C)CO)C[C@H]2C)cc1,inactive,inactive,inactive
COc1ccc(S(=O)(=O)Nc2ccc3c(c2)C(=O)N([C@@H](C)CO)C[C@H](C)[C@H](CN(C)S(=O)(=O)c2ccc(C)cc2)O3)cc1,inactive,inactive,inactive
Cc1ccc(S(=O)(=O)Nc2ccc3c(c2)C(=O)N([C@H](C)CO)C[C@H](C)[C@@H](CN(C)S(=O)(=O)c2cccs2)O3)cc1,inactive,inactive,inactive
COCCOC(=O)N1C(=O)[C@@]2(c3ccccc31)[C@H](C(=O)N1CCc3cc(OC)c(OC)cc3C1)[C@H]1C(=O)O[C@H](c3ccccc3)[C@H](c3ccccc3)N1[C@@H]2c1ccc(O)cc1,inactive,inactive,inactive
COc1ccc(NC(=O)Nc2cccc3c2O[C@@H](CN(C)Cc2ccc(Oc4ccccc4)cc2)[C@@H](C)CN([C@@H](C)CO)C3=O)cc1,inactive,active,inactive
COc1ccc(S(=O)(=O)Nc2cccc3c2O[C@@H](CN(C)S(=O)(=O)c2c(C)noc2C)[C@H](C)CN([C@H](C)CO)C3=O)cc1,inactive,inactive,inactive
CC(C)NC(=O)Nc1ccc2c(c1)C(=O)N([C@@H](C)CO)C[C@H](C)[C@@H](CN(C)Cc1ccc(Cl)c(Cl)c1)OCCCC[C@@H](C)O2,inactive,inactive,inactive
C[C@H](CO)N1C[C@H](C)[C@@H](CN(C)S(=O)(=O)c2cn(C)cn2)Oc2ccc(NS(=O)(=O)c3ccc(Cl)cc3)cc2CC1=O,inactive,inactive,inactive
C[C@@H]1CN([C@H](C)CO)C(=O)c2cc(NC(=O)Cn3cnnn3)ccc2O[C@@H]1CN(C)Cc1ccc(Cl)c(Cl)c1,inactive,inactive,inactive
O=C(C[C@H]1CC[C@@H]2[C@H](COC[C@H](O)CN2S(=O)(=O)c2ccc(Cl)cc2)O1)NCCN1CCCC1,inactive,inactive,inactive
Cc1noc(C)c1S(=O)(=O)N(C)C[C@@H]1Oc2ccc(NC(=O)Cc3cn(C)c4ccccc34)cc2CC(=O)N([C@H](C)CO)C[C@@H]1C,inactive,inactive,inactive

# Reference: the antibiotic and cytotoxicity screens of Wong et al. (2023)
